Data on 47 compounds can be found in PubChem BioAssay AID1963576 (National Center for Advancing Translational Sciences (NCATS), 2024).

Each structure is given as a SMILES string. The whole screen tested about 46,000 compounds, of which about 60 (0.1%) were called active. Another 3% or so got no clear call; they are omitted. Calls come from the whole dose curve; as a rule, active = well fitted inhibition curve with a large enough effect; inconclusive = small, poorly fitted or top-dose-only effect; inactive = no such curve, though single readings can be large or run the other way. The list shows a part of the results.

This assay can be described thus: Primary qHTS assay for Inhibitors of ovarian cancer metastasis using an organotypic tumor microenvironment (TME) model.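 For activity change, negative = inhibition: plate controls were DMSO wells for no effect and tomatine positive control wells for full effect.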 Note: nearly all actives have a fitted effect of over 65% in size. The conditions noted are these: SKOV3ip1-GFP adhesion/invasion on 3D omental model, fluorescence; series mostly up to 45.8 µM; activity change, negative = inhibition: at the top concentration. The gist of the method:
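Primary human omental fibroblast/mesothelial 3D culture pre-formed 48 h. SKOV3ip1-GFP cells added with compounds (0.36-46 umol/L), incubated 2 h RT/16 h 37 C, fixed; GFP cells quantified at 488/509 nm.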
(In general: qHTS replaces the single test concentration by a dilution series.)
For `O=C(CSc1ccc2nnc(CCNS(=O)(=O)c3ccccc3)n2n1)Nc1ccccc1C(F)(F)F`, the “activity change, negative = inhibition” value was inactive: -0.0126%. The same measure, in the same setting: the result for `CC(=O)N1c2ccc(S(=O)(=O)NCCC(=O)Nc3ccc(C)cc3Br)cc2CC1C` (configuration not stated) reads inactive: -7.69%; that for `CCc1cccc(NC(=O)CN2c3ccccc3S(=O)(=O)c3ccccc32)c1`, inactive: 4.28%. The same measure, in the same setting: for `O=C(Nc1c2c(nn1-c1ccc(Cl)cc1)CS(=O)(=O)C2)c1cccc(Cl)c1` the value was inactive: -9.2%. On to `CC1=C(C(=O)Nc2ccccc2)C(c2cccs2)n2nc(SCc3ccccc3)nc2N1` (configuration not stated), for which the call was inactive.

As to `Cc1ccc(N2CC(C(=O)NCc3nnnn3-c3ccc(C)c(C)c3)CC2=O)cc1` (configuration not stated), the “activity change, negative = inhibition” value was inactive: 8.98%.

Take `COC(=O)c1ccc(Cn2c(SCC(=O)Nc3ccc(F)cc3)nc3ccccc32)cc1`: the “activity change, negative = inhibition” value is inactive: 1.02%. Take `CCOc1ccc(-c2cc(NC(=O)Nc3ccccc3C(F)(F)F)c(C(=O)OC)s2)cc1`: the “activity change, negative = inhibition” value was inactive: 0.319%. Take `CCCCOc1ccc(C(=O)Nc2ccc3c(c2)CCCN3S(=O)(=O)c2ccc(C)cc2)cc1`: the “activity change, negative = inhibition” value is inactive: -3.11%. On the same count and under the same terms, for `CCOc1ccc(NC(=O)Cn2c(=O)n(Cc3ccc(C(=O)NCc4ccc5c(c4)OCO5)cc3)c(=O)c3ccccc32)cc1` the value was inactive: 7.77%; for `CCCCN(CC)Cc1ccc(CNS(=O)(=O)c2cc3c(cc2Cl)NC(=O)CO3)o1`, inactive: -5.91%; for `O=c1cc(N2CCOCC2)oc2c(-c3ccccc3)cccc12`, inactive: -37.4%. Still for that read-out and setting: for `CCOC(=O)c1c(C)oc2nc(C)nc(Nc3cc(C)ccc3OC)c12` the value was inactive: 0.955%. Turning to `CCOc1ccccc1NC(=O)C1CCCN(S(=O)(=O)c2cn(C)cn2)C1` (configuration not stated), the “activity change, negative = inhibition” value was inactive: -5.82%. As for `CCOC(=O)N1CCc2c(sc3c2c(=O)n(-c2ccc(CC)cc2)c(=O)n3Cc2cc(C)ccc2C)C1`, the outcome was inactive.

`COc1ccc(C(=O)Nc2ccccc2C(=O)OCc2cc(=O)n3nc(C4CC4)sc3n2)cc1`: the “activity change, negative = inhibition” value was inactive: -7.13%. For `CCOc1ccc(NC(=O)Cn2c(=O)cc(C)c3c(C)nn(-c4ccc(CC)cc4)c32)cc1`, the outcome was inactive. Take `O=C(C1CCCCC1)N(Cc1cccnc1)c1nc2ccc(F)cc2s1`: the “activity change, negative = inhibition” value is inactive: -2.76%. On the same count and under the same terms, the result for `CCc1nnc(NC(=O)CSc2nc3c([nH]c4ccccc43)c(=O)n2-c2ccc(OC)cc2)s1` reads inactive: -5.68%; that for `CCOC(=O)c1c(Nc2cccc(C)c2)nnc(-c2ccccc2)c1-c1ccccc1`, inactive: -15.5%; that for `Nc1nc(N)c(S(=O)(=O)c2ccccc2)c(Nc2ccc(F)cc2)n1`, inactive: 15.3%. Turning to `Cn1ccc2cc(S(=O)(=O)N3CCN(C(=O)Nc4ccccc4F)CC3)ccc21`, the compound was classed as inactive. On the same count and under the same terms, the result for `Cc1cccc(N(C)S(=O)(=O)c2nnc(NC(=O)C3CCCCC3)s2)c1` reads “inactive”.

Regarding `CCOC(=O)N1CCC(NC(=O)c2ccc3c(c2)N(Cc2ccc(Cl)cc2)C(=O)c2ccccc2S3=O)CC1` (configuration not stated), the “activity change, negative = inhibition” value is inactive: 35%. The same measure, in the same setting: for `CCc1ccc2occ(CC(=O)N(Cc3ccc(N(C)C)cc3)C3CCS(=O)(=O)C3)c2c1` (configuration not stated) the value was inactive: 9.28%. Same read-out and setting: the result for `COc1cc(-c2ccno2)ccc1S(=O)(=O)N1CCN(c2ccc(F)cc2)CC1` reads inactive: -2.87%. With `CCOC(=O)c1cccc(NC(=O)c2sc3nc[nH]c(=O)c3c2C)c1`, the result was inactive. With `O=C(CSc1nc2ccccc2nc1Cc1ccccc1)N1CCCc2ccccc21`, the “activity change, negative = inhibition” value was inactive: -9.92%.

`CCCc1cc(=O)[nH]c(Nc2ccc(O)cc2C)n1`: the “activity change, negative = inhibition” value was inactive: -5.28%.

Regarding `Cc1cccc(C(=O)Nc2ccc(N3CCC(CCN4CCOCC4)CC3)c(C(=O)O)c2)c1`, the “activity change, negative = inhibition” value was inactive: 7.07%.

`O=C(Nc1ccc(S(=O)(=O)N2CCC(c3nc4ccccc4s3)CC2)cc1)c1ccccc1F`: the “activity change, negative = inhibition” value was inactive: 10.8%.

On to `CCOc1ccc(CNC(=O)CCn2cccn2)cc1OC`, for which the “activity change, negative = inhibition” value is inactive: 1.42%. Same read-out and setting: the result for `CCCCCOc1ccc(C(=O)N(Cc2ccccc2)C2CCS(=O)(=O)C2)cc1` (configuration not stated) reads inactive: 10.7%. Still for that read-out and setting: the result for `CCOC(=O)c1nc(Nc2cccc(C)c2)c2ccccc2n1` reads inactive: 0.329%; that for `CCN(C(=O)NCc1noc2ccccc12)c1cc(C)ccc1C`, inactive: 1.66%; that for `CCC(C(=O)NCCc1ccc(Cl)cc1)n1nc(C)c2c(C)n(-c3ccccc3)nc2c1=O` (configuration not stated), inactive: 2.86%.

With `Cc1cccc(C(CC(=O)NCC2(c3ccccc3)CCCC2)c2ccccc2)c1O` (configuration not stated), the outcome was inactive.

`Cc1cc(NC(=O)CN(C)S(=O)(=O)c2ccc3c(c2)CCC(=O)N3)ccc1Br`: the “activity change, negative = inhibition” value is inactive: -5.34%. Same read-out and setting: the result for `Cc1cccc(Cn2c(C)c(C)c3cc(C(=O)NCc4ccc(C)o4)ccc32)c1` reads inactive: -1.6%; that for `CCOc1ccc(NC(=O)CN2C(=O)C(c3ccccc3)=NC23CCCCCC3)cc1`, inactive: -6.65%. For the compound `CCOc1ccc(CCNC(=O)c2cc3c(-c4cccc(OC)c4)nn(C)c3s2)cc1OCC`, the call was inactive. Take `CCCCC12CN3CC(C)(CN(C1)C3c1c(C)[nH]c(=O)[nH]c1=O)C2=O` (configuration not stated): the “activity change, negative = inhibition” value is inactive: 4.14%. Still for that read-out and setting: for `Cc1cccc(CS(=O)(=O)Cc2ccc(C(=O)NCc3ccc(Cl)cc3)o2)c1` the value was inactive: -2.82%; for `COc1ccc(-c2cccc(NS(=O)(=O)c3cc(C)c(Cl)cc3C)c2)nn1`, inactive: -4.25%; for `CCN(CCCNC(=O)c1nn(-c2ccc(OC)cc2)c(=O)c2c1c1ccccc1n2C)c1cccc(C)c1`, inactive: 1.32%. On the same count and under the same terms, the result for `O=C(CSc1oc(-c2ccco2)nc1S(=O)(=O)c1ccc(Cl)cc1)c1ccccc1` reads inactive: -19.4%; that for `COc1cccc(CSc2nc3n(n2)C(c2ccccc2C)C(C(=O)Nc2ccccc2OC)=C(C)N3)c1` (configuration not stated), inactive: -2.09%.
